Measured values reported in patent US10273244B2, “Substituted hexahydropyrrolo[3,4-b]pyrroles and hexahydrocyclopenta[c]pyrroles as dopamine receptor modulators” (INDIVIOR UK LIMITED, priority 2015, dated 2019).
Where a name gives a salt, the structure may show the parent alone. Read-outs that look alike come from different tables or passages of the source.

What was measured:
[1] = biological target: human dopamine receptor type 2, long variant (hD2L), CHO-Gα16-hD2L cells (Homo sapiens (Human), UniProt P14416); conditions: for D2 fpKi: functional pKi, FLIPR Ca2+, antagonism of dopamine EC80
UniProt P14416, sequence (P14416 whole entry): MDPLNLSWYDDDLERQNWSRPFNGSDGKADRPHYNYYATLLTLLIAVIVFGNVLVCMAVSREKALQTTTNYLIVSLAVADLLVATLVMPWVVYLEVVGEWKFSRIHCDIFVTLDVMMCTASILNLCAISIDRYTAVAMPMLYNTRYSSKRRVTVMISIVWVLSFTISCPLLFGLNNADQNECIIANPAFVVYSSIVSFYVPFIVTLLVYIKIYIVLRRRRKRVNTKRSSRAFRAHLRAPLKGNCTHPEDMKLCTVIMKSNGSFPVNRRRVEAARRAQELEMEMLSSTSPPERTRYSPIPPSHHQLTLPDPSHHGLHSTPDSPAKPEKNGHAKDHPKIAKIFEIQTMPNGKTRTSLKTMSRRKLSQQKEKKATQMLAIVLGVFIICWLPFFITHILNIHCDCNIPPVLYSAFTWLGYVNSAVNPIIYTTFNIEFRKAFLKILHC

[2] = biological target: human dopamine type 3 receptor (CHO-hD3 membranes) (Homo sapiens (Human), UniProt P35462)
UniProt P35462, sequence (P35462 whole entry): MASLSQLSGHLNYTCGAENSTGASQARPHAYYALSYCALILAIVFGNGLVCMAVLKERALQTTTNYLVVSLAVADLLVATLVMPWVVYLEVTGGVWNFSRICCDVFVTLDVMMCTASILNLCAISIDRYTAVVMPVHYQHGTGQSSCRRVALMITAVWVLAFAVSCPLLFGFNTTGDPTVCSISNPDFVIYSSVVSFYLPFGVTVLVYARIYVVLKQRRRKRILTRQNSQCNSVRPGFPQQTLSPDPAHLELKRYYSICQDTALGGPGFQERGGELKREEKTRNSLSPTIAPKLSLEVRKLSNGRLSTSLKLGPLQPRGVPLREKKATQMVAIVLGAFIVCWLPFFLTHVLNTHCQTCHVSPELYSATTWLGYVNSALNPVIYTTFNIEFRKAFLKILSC

[3] = displacement of 0.3 nM [3H]-Spiperone

Row | Compound | Ki [1] [nM] | further results
1 | Cc1ncoc1-c1nnc(SCCCN2CC3CCN(c4ccccc4)C3C2)n1C (centres unmarked) [Example 12, 4-methyl-3-(4-methyl-1,3-oxazol-5-yl)-5-[(3-{1-phenyl-octahydropyrrolo-[2,3-c]pyrrol-5-yl}propyl)sulfanyl]-4H-1,2,4-triazole] | – | D2 fpKi [1]: 6.73
2 | Cn1c(SCCCN2C[C@H]3CCN(c4cccnc4)[C@H]3C2)nnc1C1CCCCC1 (single isomer, unassigned) [Example 70, 3-[(3aR,6aR or 3aS,6aS)-5-{3-[(5-cyclohexyl-4-methyl-4H-1,2,4-triazol-3-yl)sulfanyl]propyl}-octahydropyrrolo[2,3-c]pyrrol-1-yl]pyridine] | > 10000 | –
3 | Cn1c(SCCCN2C[C@H]3CCN(c4ccc(C(F)(F)F)cc4)[C@H]3C2)nnc1C1CCCCC1 (single isomer, unassigned) [Example 60, 3-({3-[(3aR,6aR or 3aS,6aS)-1-[4-(trifluoromethyl)phenyl]-octahydropyrrolo[3,4-b]pyrrol-5-yl]propyl}sulfanyl)-5-cyclohexyl-4-methyl-4H-1,2,4-triazole] | 282 | –
4 | Cn1c(SCCCN2C[C@H]3CCN(c4ccc(C(F)(F)F)cc4)[C@H]3C2)nnc1[C@H]1COCCO1 (single isomer, unassigned) [Example 79, 3-({3-[(3aR,6aR or 3aS,6aS)-1-[4-(trifluoromethyl)phenyl]-octahydropyrrolo[3,4-b]pyrrol-5-yl]propyl}sulfanyl)-5-[(2R or 2S)-1,4-dioxan-2-yl]-4-methyl-4H-1,2,4-triazole dihydrochloride] | 871 | –
5 | Cn1c(SCCCN2C[C@H]3CCN(c4ccc(C(F)(F)F)cc4)[C@H]3C2)nnc1[C@@H]1COCCO1 (single isomer, unassigned) [Example 76, 3-({3-[(3aR,6aR or 3aS,6aS)-1-[4-(trifluoromethyl)phenyl]-octahydropyrrolo[3,4-b]pyrrol-5-yl]propyl}sulfanyl)-5-[(2R or 2S)-1,4-dioxan-2-yl]-4-methyl-4H-1,2,4-triazole dihydrochloride] | 138 | –
6 | Cn1c(SCCCN2C[C@@H]3CCN(c4ccc(C(F)(F)F)cc4)[C@@H]3C2)nnc1[C@@H]1COCCO1 (single isomer, unassigned) [Example 77, 3-({3-[(3aR,6aR or 3aS,6aS)-1-[4-(trifluoromethyl)phenyl]-octahydropyrrolo[3,4-b]pyrrol-5-yl]propyl}sulfanyl)-5-[(2R or 2S)-1,4-dioxan-2-yl]-4-methyl-4H-1,2,4-triazole dihydrochloride] | 1230 | –
7 | Cc1ncoc1-c1nnc(SCCCN2C[C@@H]3CCN(c4ccc(F)cc4)[C@@H]3C2)n1C (single isomer, unassigned) [Example 24] | – | D2 fpKi [1]: 6.53
8 | Cc1ncoc1-c1nnc(SCCCN2CC3CCN(c4ccc(OC(F)(F)F)cc4)C3C2)n1C (centres unmarked) [Example 26, 4-methyl-3-(4-methyl-1,3-oxazol-5-yl)-5-[(3-{1-[4-(trifluoromethoxy)phenyl]-octahydropyrrolo[3,4-b]pyrrol-5-yl}propyl)sulfanyl]-4H-1,2,4-triazole] | – | D2 fpKi [1]: 6.21
9 | Cn1c(SCCCN2CC3CCN(c4ccc(C(F)(F)F)cc4)C3C2)nnc1-c1cnccn1 (centres unmarked) [Example 89, 2-{4-methyl-5-[(3-{1-[4-(trifluoromethyl)phenyl]-octahydropyrrolo[2,3-c]pyrrol-5-yl}propyl)sulfanyl]-4H-1,2,4-triazol-3-yl}pyrazine] | – | D2 fpKi [1]: 6.76
10 | Cn1c(SCCCN2C[C@H]3CCN(c4ccc(C(F)(F)F)cc4)[C@H]3C2)nnc1C1CCOCC1 (single isomer, unassigned) [Example 35, 3-({3-[(3aR,6aR or 3aS,6aS)-1-[4-(trifluoromethyl)phenyl]-octahydropyrrolo[2,3-c]pyrrol-5-yl]propyl}sulfanyl)-4-methyl-5-(oxan-4-yl)-4H-1,2,4-triazole] | 468 | –
11 | Cn1c(SCCCN2C[C@@H]3CCN(c4ccc(C(F)(F)F)cc4)[C@@H]3C2)nnc1C1CCOCC1 (single isomer, unassigned) [Example 34, 3-({3-[(3aS,6aS or 3aR,6aR)-1-[4-(trifluoromethyl)phenyl]-octahydropyrrolo[2,3-c]pyrrol-5-yl]propyl}sulfanyl)-4-methyl-5-(oxan-4-yl)-4H-1,2,4-triazole] | 457 | –
12 | Cn1c(SCCCN2C[C@@H]3CCN(c4cccnc4)[C@@H]3C2)nnc1C1CCCCC1 (single isomer, unassigned) [Example 69, 3-[(3aS,6aS or 3aR,6aR)-5-{3-[(5-cyclohexyl-4-methyl-4H-1,2,4-triazol-3-yl)sulfanyl]propyl}-octahydropyrrolo[2,3-c]pyrrol-1-yl]pyridine] | 1480 | –
13 | Cn1c(SCCCN2C[C@@H]3CCN(c4c(F)cc(F)cc4F)[C@@H]3C2)nnc1-c1ccc(C(N)=O)nc1 [Example 205, 5-[5-({3-[(3aS,6aS or 3aR,6aR)-1-(2,4,6-trifluorophenyl)-octahydropyrrolo[2,3-c]pyrrol-5-yl]propyl}sulfanyl)-4-methyl-4H-1,2,4-triazol-3-yl]pyridine-2-carboxamide] | – | D3 pKi [2]: 9.19
14 | Cn1c(SCCCN2CC3CCN(c4c(F)cccc4C(F)(F)F)C3C2)nnc1-c1cnccn1 (centres unmarked) [Example 131, 2-{5-[(3-{1-[2-fluoro-6-(trifluoromethyl)phenyl]-octahydropyrrolo[3,4-b]pyrrol-5-yl}propyl)sulfanyl]-4-methyl-4H-1,2,4-triazol-3-yl}pyrazine] | – | D3 pKi [2, 3]: 8.36
15 | COc1cccc(N2CCC3CN(CCCSc4nnc(-c5cnccn5)n4C)CC32)c1 (centres unmarked) [Example 109, 2-[5-({3-[1-(3-methoxyphenyl)-octahydropyrrolo[3,4-b]pyrrol-5-yl]propyl}sulfanyl)-4-methyl-4H-1,2,4-triazol-3-yl]pyrazine] | – | D3 pKi [2, 3]: 8.10
16 | Cl.Cl.Cn1c(SCCCN2C[C@@H]3CCN(c4ccccc4C(F)(F)F)[C@@H]3C2)nnc1-c1ccc(=O)[nH]c1 [Example 182, 5-[5-({3-[(3aS,6aS or 3aR,6aR)-1-[2-(trifluoromethyl)phenyl]-octahydropyrrolo[3,4-b]pyrrol-5-yl]propyl}sulfanyl)-4-methyl-4H-1,2,4-triazol-3-yl]-1,2-dihydropyridin-2-one dihydrochloride] | – | D3 pKi [2, 3]: 8.21
17 | Cl.Cl.Cn1c(SCCCN2CC3CCN(c4c(F)cccc4F)C3C2)nnc1-c1cnccn1 (centres unmarked) [Example 99, 2-[5-({3-[1-(2,6-difluorophenyl)-octahydropyrrolo[3,4-b]pyrrol-5-yl]propyl}sulfanyl)-4-methyl-4H-1,2,4-triazol-3-yl]pyrazine dihydrochloride] | – | D3 pKi [2, 3]: 8.64
18 | Cn1c(SCCCN2CC3CCN(c4ccc(C(F)(F)F)cc4)C3C2)nnc1C(=O)N1CCCC1 (centres unmarked) [Example 191, 4-methyl-3-(pyrrolidine-1-carbonyl)-5-[(3-{1-[4-(trifluoromethyl)phenyl]-octahydropyrrolo[3,4-b]pyrrol-5-yl}propyl)sulfanyl]-4H-1,2,4-triazole] | – | D3 pKi [2, 3]: 7.56
19 | Cn1c(SCCCN2CC3CCN(c4c(F)cccc4F)C3C2)nnc1-c1cccnc1 (centres unmarked) [Example 146, 3-[5-({3-[1-(2,6-difluorophenyl)-octahydropyrrolo[3,4-b]pyrrol-5-yl]propyl}sulfanyl)-4-methyl-4H-1,2,4-triazol-3-yl]pyridine] | – | D3 pKi [2, 3]: 8.12

Continued, in another order:

Row | Ki [1] [nM] | Compound | further results
20 | 141 | Cn1c(SCCCN2C[C@H]3CCN(c4ccc(C(F)(F)F)cc4)[C@H]3C2)nnc1-c1cnccn1 (single isomer, unassigned) [Example 93, 2-[5-({3-[(3aR,6aR or 3aS,6aS)-1-[4-(trifluoromethyl)phenyl]-octahydropyrrolo[2,3-c]pyrrol-5-yl]propyl}sulfanyl)-4-methyl-4H-1,2,4-triazol-3-yl]pyrazine] | –
21 | 151 | Cc1ncoc1-c1nnc(SCCCN2C[C@H]3CC[C@H](c4ccc(C(F)(F)F)cc4)[C@H]3C2)n1C (single isomer, unassigned) [Example 226, 4-methyl-3-(4-methyl-1,3-oxazol-5-yl)-5-({3-[(4S or 4R)-4-[4-(trifluoromethyl)phenyl]-octahydrocyclopenta[c]pyrrol-2-yl]propyl}sulfanyl)-4H-1,2,4-triazole hydrochloride] | –
22 | 372 | Cc1ncoc1-c1nnc(SCCCN2C[C@@H]3CCN(c4ccccc4)[C@@H]3C2)n1C (single isomer, unassigned) [Example 15, 3-({3-[(3aS,6aS or 3aR,6aR)-1-phenyl-octahydropyrrolo[2,3-c]pyrrol-5-yl]propyl}sulfanyl)-4-methyl-5-(4-methyl-1,3-oxazol-5-yl)-4H-1,2,4-triazole] | –
23 | 45.7 | Cc1ncoc1-c1nnc(SCCCN2C[C@@H]3CCN(c4ccc(F)cc4)[C@@H]3C2)n1C (single isomer, unassigned) [Example 23] | –
24 | 776 | Cn1c(SCCCN2C[C@@H]3CCN(c4ccc(F)cc4F)[C@@H]3C2)nnc1-c1cnccn1 (single isomer, unassigned) [Example 105, 2-[5-({3-[(3aS,6aS or 3aR,6aR)-1-(2,4-difluorophenyl)-octahydropyrrolo[2,3-c]pyrrol-5-yl]propyl}sulfanyl)-4-methyl-4H-1,2,4-triazol-3-yl]pyrazine dihydrochloride] | –
25 | 155 | Cn1c(SCCCN2C[C@@H]3CCN(c4ccc(C(F)(F)F)cc4)[C@@H]3C2)nnc1-c1cnccn1 (single isomer, unassigned) [Example 92, 2-[5-({3-[(3aS,6aS or 3aR,6aR)-1-[4-(trifluoromethyl)phenyl]-octahydropyrrolo[2,3-c]pyrrol-5-yl]propyl}sulfanyl)-4-methyl-4H-1,2,4-triazol-3-yl]pyrazine dihydrochloride] | –
26 | 145 | Cc1ncoc1-c1nnc(SCCCN2C[C@H]3CCN(c4ccccc4)[C@H]3C2)n1C (single isomer, unassigned) [Example 16, 3-({3-[(3aR,6aR or 3aS,6aS)-1-phenyl-octahydropyrrolo[2,3-c]pyrrol-5-yl]propyl}sulfanyl)-4-methyl-5-(4-methyl-1,3-oxazol-5-yl)-4H-1,2,4-triazole] | –
